These are yes or no findings as the source states them, for the method shown. Binding seen in cells or lysates may run through a third protein. Some results given as binding are weak or reduced against the parent protein; the word gives no strength.
Key:
Experiment in all cases: co-IP; GFP-Trap agarose on lysates of HEK-293 cells stably expressing YFP-tagged transporters, 90 min at 4°C, co-IP lysis buffer; immunoblot; for YFP-hSERT also after control or MAD2 siRNA (BubR1 substantially reduced, β2-adaptin down by about 50%, p31^comet not significantly changed, HSP70 unaffected)
[1] = molecular target: YFP-tagged human GABA transporter 1 (human) (UniProt P30531)
[2] = molecular target: N-terminally YFP-tagged human norepinephrine transporter (human) (UniProt P23975)
[3] = molecular target: N-terminally YFP-tagged human dopamine transporter (human) (UniProt Q01959)

Sequences of proteins named here, by UniProt entry; tags and fusion partners are left off.
UniProt P30531: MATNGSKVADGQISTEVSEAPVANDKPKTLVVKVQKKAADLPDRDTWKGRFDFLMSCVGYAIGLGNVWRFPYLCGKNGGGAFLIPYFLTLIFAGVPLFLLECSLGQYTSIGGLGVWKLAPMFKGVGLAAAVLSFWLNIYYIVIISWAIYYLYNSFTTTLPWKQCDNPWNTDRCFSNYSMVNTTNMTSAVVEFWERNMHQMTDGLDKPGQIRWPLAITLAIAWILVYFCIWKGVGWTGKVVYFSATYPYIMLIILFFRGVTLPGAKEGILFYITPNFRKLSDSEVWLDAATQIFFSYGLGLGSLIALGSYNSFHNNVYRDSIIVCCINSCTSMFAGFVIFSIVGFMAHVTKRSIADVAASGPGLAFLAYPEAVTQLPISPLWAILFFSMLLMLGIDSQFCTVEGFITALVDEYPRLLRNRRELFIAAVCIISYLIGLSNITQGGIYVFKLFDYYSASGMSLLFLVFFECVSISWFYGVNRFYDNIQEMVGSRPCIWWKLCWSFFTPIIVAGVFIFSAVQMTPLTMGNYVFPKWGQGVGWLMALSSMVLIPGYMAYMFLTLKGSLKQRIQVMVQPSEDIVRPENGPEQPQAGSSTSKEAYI
UniProt P23975: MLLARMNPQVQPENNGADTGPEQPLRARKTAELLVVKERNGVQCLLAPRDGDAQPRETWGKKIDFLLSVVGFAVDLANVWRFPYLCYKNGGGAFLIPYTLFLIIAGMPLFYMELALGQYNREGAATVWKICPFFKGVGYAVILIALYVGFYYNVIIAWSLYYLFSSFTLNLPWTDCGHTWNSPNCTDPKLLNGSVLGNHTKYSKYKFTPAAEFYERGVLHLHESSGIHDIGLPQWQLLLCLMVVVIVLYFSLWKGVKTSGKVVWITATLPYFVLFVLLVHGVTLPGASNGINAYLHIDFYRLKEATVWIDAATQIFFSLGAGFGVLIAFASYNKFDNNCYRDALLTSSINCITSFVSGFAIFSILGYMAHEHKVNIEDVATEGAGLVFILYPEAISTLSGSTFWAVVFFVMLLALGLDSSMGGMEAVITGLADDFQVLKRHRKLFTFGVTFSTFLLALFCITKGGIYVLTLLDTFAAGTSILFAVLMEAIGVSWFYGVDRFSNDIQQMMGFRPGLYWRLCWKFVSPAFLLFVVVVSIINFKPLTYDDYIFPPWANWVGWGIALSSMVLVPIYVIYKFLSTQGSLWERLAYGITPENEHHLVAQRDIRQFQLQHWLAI
UniProt Q01959: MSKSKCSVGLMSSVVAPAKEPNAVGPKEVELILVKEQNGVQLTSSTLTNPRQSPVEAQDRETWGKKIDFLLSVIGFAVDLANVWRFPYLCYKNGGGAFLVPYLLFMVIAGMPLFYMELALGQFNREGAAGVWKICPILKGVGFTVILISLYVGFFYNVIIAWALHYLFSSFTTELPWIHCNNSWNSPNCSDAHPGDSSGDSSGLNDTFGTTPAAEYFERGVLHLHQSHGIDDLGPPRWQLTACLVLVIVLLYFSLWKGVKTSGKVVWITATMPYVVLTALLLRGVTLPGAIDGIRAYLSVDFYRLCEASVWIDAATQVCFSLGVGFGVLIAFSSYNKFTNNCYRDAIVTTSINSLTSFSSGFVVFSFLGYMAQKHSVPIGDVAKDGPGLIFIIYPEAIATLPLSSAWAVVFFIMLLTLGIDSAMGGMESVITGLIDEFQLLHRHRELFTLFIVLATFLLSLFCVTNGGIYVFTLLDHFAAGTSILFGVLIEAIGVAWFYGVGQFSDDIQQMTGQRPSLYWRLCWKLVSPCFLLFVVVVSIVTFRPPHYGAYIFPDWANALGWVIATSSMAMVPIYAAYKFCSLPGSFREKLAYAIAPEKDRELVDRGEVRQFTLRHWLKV

Measured: binding

B1: p31^comet, endogenous (protein, UniProt Q15013 1-274)
chain: MAAPEAEVLSSAAVPDLEWYEKSEETHASQIELLETSSTQEPLNASEAFCPRDCMVPVVFPGPVSQEGCCQFTCELLKHIMYQRQQLPLPYEQLKHFYRKPSPQAEEMLKKKPRATTEVSSRKCQQALAELESVLSHLEDFFARTLVPRVLILLGGNALSPKEFYELDLSLLAPYSVDQSLSTAACLRRLFRAIFMADAFSELQAPPLMGTVVMAQGHRNCGEDWFRPKLNYRVPSRGHKLTVTLSCGRPSIRTTAWEDYIWFQAPVTFKGFRE
binds: [1] | [2] | [3]

— PMC10561363
